Laboratory results taken from patent US20080075796A1, “Compositions and Methods for Controlling Insects” (TyraTech, Inc., priority 2003, published 2008).

Test system: Carpenter ants
Experiment: Repellent effect on carpenter ants (treated filter paper)
Format: in vivo
Protocol: Adult insect are randomly selected for testing the repellent effect of compositions and are not individually marked. About 5 insects per replicate are used. About 3 replicates are used for each treatment. Untreated control tests are included with only solvent (acetone) application to an equal sized population/replications, held under identical conditions. A filter paper (about 80 cm^2) is treated with the composition (about 100 mg in […] acetone). After about 3 min of air drying, the filter paper is placed in a dish and repellency against insects is performed. Insects are released to the dish, one insect at a time at the far end of the dish. Using one or more stopwatches, the time spent on either the filter paper or the untreated surface of the dish is recorded up to about 300 seconds. Repellency ratio (RR) is calculated as follows: RR=[(time on control surface−time on treated surface)/total time of test]. If RR>0 then the composition is considered to have a repellant effect, that is to say, an effect, wherein more insects are repelled away from treated surface than the control surface; if RR<0 then the composition is considered not to have a repellant effect.
The repellent effect of various plant essential oils is tested by treating a filter paper with the test oils. After about five minutes at room temperature, the paper is placed in a dish and ants are introduced one at a time. The repellency is determined as described above, in Example 14. Oils are tested alone. Additionally, oils are mixed to form compositions, which are then tested.

| SMILES | Repellency %, R % (Day 0) | sec. on T surface (Day 0, time on treated surface of up to about 300 seconds) | Repellency %, R % (Day 1) |
| --- | --- | --- | --- |
| CC(C)=CCC/C(C)=C/CO [geraniol] | 54.0% | 69 s | – |
| Cc1ccc(C(C)C)c(O)c1 [thymol] | – | – | 30.4% |
